The structures appear in SMILES notation. Out of some 39,000 compounds screened, about 220 (0.56%) showed activity. This is one part of the list.
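Note: static incubation at 37 °C against the wild-type strain, values averaged over two biological replicates.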

This assay concerns Escherichia coli K-12 BW25113. Nature of the assay: relative growth (OD600 normalised to plate interquartile mean) (fraction); higher = less growth inhibition, active = 0.2 or less. The following applies: 50 µM; LB; incubation time: overnight (16-24 h).
In the case of `COc1ccc(Cc2nccc3cc(OC)c(OC)cc23)cc1OC.Cl`, the relative growth was inactive: 0.959.

As for `O=C(O)C(Cl)Cl.[NaH]`, the relative growth was inactive: 0.879.

Turning to `C[N+]1([O-])C2CCC1CC(OC(=O)C(CO)c1ccccc1)C2` (centres undefined), the relative growth is inactive: 0.951.

Take `C=C(C)[C@@H]1CCC(C)=C[C@H]1c1c(O)cc(CCCCC)cc1O`: the relative growth was inactive: 1.01.

Take `C[C@H]1O[C@H](O[C@H]2[C@H](O)[C@@H](O)[C@@H](O)[C@H](O)[C@@H]2O)[C@@H](N)C[C@@H]1NC(=N)C(=O)O`: the relative growth is inactive: 0.504.

For the molecule `CC(C)Oc1ccc(CCN)cc1`, the relative growth was inactive: 1.

For the molecule `C[C@@H]1CN([C@H](C)CO)C(=O)CCCn2nncc2CO[C@@H]1CN(C)C(=O)Oc1ccc2ccccc2c1`, the relative growth is inactive: 0.998.

In the case of `C#CC1(O)CCC2C3CCC4=CC(=O)CCC4(C)C3CCC21C` (centres undefined), the relative growth is inactive: 1.06.

For the molecule `O=C1[O][SbH]23[O]C(=O)[C@H]([O]2)[C@H]2[O][SbH]4([O]C(=O)[C@H]([O]4)[C@H]1[O]3)[O]C2=O`, the relative growth is inactive: 0.313.

As to `N[C@@H](Cc1ccc(O)cc1)C(=O)NCC(=O)NCC(=O)O`, the relative growth was inactive: 0.969.

As for `COCCC(=O)N1C[C@H]2CCN[C@H]2C1`, the relative growth was inactive: 0.987.

`CC(=O)NCCSS(C)(=O)=O.CN(C)c1ccc2c(-c3ccccc3C(=O)O)c3ccc(N(C)C)cc3[o+]c2c1`: the relative growth is inactive: 1.03.

Turning to `O=C1NC2(CCNCC2)C[C@@H]1c1ccncc1`, the relative growth is inactive: 0.994.

Turning to `Cc1cc(O)ccc1Cl`, the relative growth is inactive: 0.754.

In the case of `C[C@H](N)Cc1cnc[nH]1`, the relative growth is inactive: 1.02.

As for `CCCC(C)C1(CC)C(=O)N=C([S-])NC1=O.[Na+]` (centres undefined), the relative growth was inactive: 0.853.

Turning to `Cc1o[nH]c(=O)c1C[C@@H](N)C(=O)O`, the relative growth is inactive: 1.

Regarding `COc1ccc(N(C(=O)Oc2c(C)cccc2C)c2ccnc(Nc3ccc(N4CCN(C)CC4)cc3)n2)c(OC)c1`, the relative growth is inactive: 1.02.

`C[C@@H]1CN([C@H](C)CO)C(=O)CCCn2nncc2CO[C@H]1CN(C)C(=O)Oc1cccc2ccccc12`: the relative growth was inactive: 1.01.

`CC(=O)OC1C(=O)C2(C)C(O)CC3OCC3(OC(C)=O)C2C(OC(=O)c2ccccc2)C2(O)CC(O)C(C)=C1C2(C)C` (centres undefined): the relative growth was inactive: 1.01.

Regarding `Nc1nc(Cl)ncc1[N+](=O)[O-]`, the relative growth is inactive: 0.988.

Consider `O=C(OC1CC2CCC(C1)[N+]21CCCC1)C(O)(c1ccccc1)c1ccccc1.[Cl-]` (centres undefined), for which the relative growth was inactive: 1.02.

Take `NNc1ccn([C@H]2O[C@@H](CO)[C@@H](O)[C@@H]2O)c(=O)n1`: the relative growth is inactive: 0.394.

As for `O=C(O)Cc1cnc[nH]1`, the relative growth was inactive: 0.999.

On to `CC(C)c1ccc2[nH]c(=O)c(CCN)cc2c1`, for which the relative growth is inactive: 0.97.

For the molecule `NC(=O)CN1C[C@@H](O)CC1=O`, the relative growth is inactive: 0.999.

In the case of `COc1ccc(C2(CN)CCCC2)cc1`, the relative growth was inactive: 1.02.

`C[C@@H](N)Cc1ccc2occc2c1`: the relative growth is inactive: 1.04.

In the case of `CC(=C1C(=O)NC(=O)NC1=O)c1ccc(N)cc1`, the relative growth is inactive: 1.01.

As for `CC12CCC3c4ccc(OC(=O)N(CCCl)CCCl)cc4CCC3C1CCC2O` (centres undefined), the relative growth is inactive: 0.992.

In the case of `N=C(N)NO`, the relative growth was inactive: 1.02.

Regarding `COc1cccc2c1C(=O)c1c(O)c3c(c(O)c1C2=O)C[C@@](O)(C(=O)CO)C[C@@H]3O[C@H]1C[C@H](N2CCO[C@H](OC)C2)[C@H](O)[C@H](C)O1`, the relative growth is inactive: 0.933.

Regarding `CO[C@@H]1C=C[C@@H]2[C@H]1N2CCO` (some centres undefined), the relative growth was inactive: 0.968.

Take `COC(=O)[C@H]1[C@H](CO)[C@H]2Cn3c(cccc3=O)[C@@H]1N2C(=O)C1CC1`: the relative growth was inactive: 1.02.

In the case of `C/C=C(/C)C(=O)O[C@H]1CC[C@@]2(C)[C@@H]3CC[C@H]4[C@]5(O)C[C@H](O)[C@@]6(O)[C@@H](CN7C[C@@H](C)CC[C@H]7[C@@]6(C)O)[C@]5(O)C[C@@]42O[C@@]13O`, the relative growth is inactive: 1.01.

Take `O.O=c1ccc2cc(OC3OC(CO)C(O)C(O)C3O)c(O)cc2o1` (centres undefined): the relative growth is inactive: 1.07.

As to `NNc1ccn([C@@H]2O[C@H](CO)[C@@H](O)[C@H]2O)c(=O)n1`, the relative growth is inactive: 0.684.

For `O=C1[O][Pt]2([NH][C@@H]3CCCC[C@H]3[NH]2)[O]C1=O`, the relative growth is inactive: 0.96.

Regarding `CC1=C(O)C(=O)C=C2C1=CC=C1C2(C)CCC2(C)C3CC(C)(C(=O)O)CCC3(C)CCC12C` (centres undefined), the relative growth is inactive: 1.02.

As for `O=c1ccc(=O)[nH][nH]1`, the relative growth was inactive: 0.994.

With `C[C@@H]1CN([C@@H](C)CO)C(=O)c2c(c3ccccc3n2C)-c2ccccc2CO[C@@H]1CN(C)C(=O)Oc1ccccc1`, the relative growth was inactive: 0.989.

As to `CC(=O)N[C@@H]1CCSC1=O`, the relative growth was inactive: 1.01.

Take `O=C1O[C@H]2CN[C@@H]1C2`: the relative growth is inactive: 0.987.

As for `C[N+](C)(C)CCCl`, the relative growth was inactive: 1.

With `CC(=O)OC1CC(OC2C(O)CC(OC3C(O)CC(OC4CCC5(C)C(CCC6C5CC(O)C5(C)C(C7=CC(=O)OC7)CCC65O)C4)OC3C)OC2C)OC(C)C1OC1OC(CO)C(O)C(O)C1O` (centres undefined), the relative growth is inactive: 0.995.

In the case of `Cc1nn[nH]n1`, the relative growth is inactive: 0.979.

In the case of `CC[C@@H](CN)c1ccccc1`, the relative growth was inactive: 0.896.

In the case of `O=C([O-])CCCO.[Na+]`, the relative growth is inactive: 1.11.

In the case of `C[C@@]1(C(=O)O)[C@H]2CC[C@@H](O2)[C@@]1(C)C(=O)O`, the relative growth is inactive: 0.979.

Consider `O=C1[O][SbH]23[O]C(=O)C([O]2)C2[O][SbH]4([O]C(=O)C([O]4)C1[O]3)[O]C2=O`, for which the relative growth is inactive: 0.368.

With `CCCC12CNCC(C)(CNC1)C2=O`, the relative growth was inactive: 0.998.

As to `CCCCC1C(=O)NC(=S)NC1=O`, the relative growth was inactive: 1.02.

Consider `C[C@H]1C[C@H]2CNCC[C@@H]2O1`, for which the relative growth is inactive: 1.03.

On to `O=S1(=O)COC2(CNC2)CN1`, for which the relative growth is inactive: 0.995.

As for `ClC=C(Cl)Cl`, the relative growth was inactive: 1.13.

Regarding `NCC1(c2c(F)cc(F)cc2F)CC1`, the relative growth was inactive: 0.966.

For `Clc1nc(N2CCNCC2)c2[nH]cnc2n1`, the relative growth was inactive: 0.993.

Consider `Cc1ccc(OC(=O)N(C)C[C@H]2OCc3ccccc3-c3c(n(C)c4ccccc34)C(=O)N([C@H](C)CO)C[C@H]2C)cc1`, for which the relative growth is inactive: 0.996.

Turning to `C[C@H]1C(=O)O[C@@H]2CCN3CC=C(COC(=O)[C@](C)(O)[C@]1(C)O)[C@H]23`, the relative growth was inactive: 1.

In the case of `C[C@@H](N)Cc1cccc(O)c1`, the relative growth is inactive: 0.998.

For the molecule `C1C[C@@H]2C[C@@H]2N1`, the relative growth was inactive: 1.05.

Consider `CN1CC[C@]2(CCCO2)C1`, for which the relative growth was inactive: 0.989.

Turning to `CCn1cc(C(=O)[O-])c(=O)c2cc3c(cc21)OCO3.[K+]`, the relative growth was active: 0.0482.

In the case of `CCC(C)(C)O`, the relative growth is inactive: 1.03.

With `CN(C)C(=S)SSC(=S)N(C)C`, the relative growth was inactive: 0.518.

`C[C@H]1CN(C)[C@@H](C)C[C@@H]1n1[nH]c(=O)cc1N`: the relative growth was inactive: 0.973.

For `CC(C)c1ccc2c(c1O)CCC1C3=C(CCC21C)C(=O)OC3` (centres undefined), the relative growth was inactive: 0.999.

As to `O=C1NC(=O)C(=O)C(=O)N1`, the relative growth was inactive: 1.

As for `OCC(Br)(Br)Br`, the relative growth was inactive: 1.02.

With `CCN1C[C@]2(OC(=O)c3ccccc3NC(C)=O)CC[C@H](OC)[C@@]34[C@@H]2C[C@@H]([C@@H]13)[C@@]1(O)C[C@H](OC)[C@H]2C[C@@H]4[C@]1(O)[C@H]2OC`, the relative growth is inactive: 1.01.

For the molecule `CCC(CO)NC(=O)C1C=C2c3cccc4c3c(cn4C)CC2N(C)C1.O=C(O)C=CC(=O)O` (centres undefined), the relative growth is inactive: 0.905.

For the molecule `c1cc2c(c(N3CCNCC3)c1)OCCO2`, the relative growth was inactive: 1.

In the case of `C1COC2(CCOCC2)CN1`, the relative growth was inactive: 0.986.

With `CC12CCC(O)CC1CCC1C2CC(O)C2(C)C(C3=CC(=O)OC3)CCC12O` (centres undefined), the relative growth is inactive: 0.988.

As for `COc1cc2c(cc1-c1cc3cc4ccoc4cc3oc1=O)OCO2`, the relative growth was inactive: 1.

In the case of `CCCC(=O)O[C@H]1CN2CC[C@H](O)[C@@H]2[C@@H](O)[C@@H]1O`, the relative growth is inactive: 0.985.

Regarding `N#[N+]CC(=O)CC[C@H](N)C(=O)O`, the relative growth is inactive: 1.

`C[N+]1(C)CCCC(OC(=O)C(O)(c2ccccc2)c2ccccc2)C1.[Br-]` (centres undefined): the relative growth was inactive: 0.985.

In the case of `CC=C1CC(C)C(O)(CO)C(=O)OCC2=CCN3CCC(OC1=O)C23` (centres undefined), the relative growth is inactive: 1.04.

As for `COc1ccc(OC(=O)N(C)C[C@H]2OCc3ccccc3-c3c(n(C)c4ccccc34)C(=O)N([C@H](C)CO)C[C@@H]2C)cc1`, the relative growth is inactive: 0.981.

On to `CS(=N)(=O)CC[C@H](N)C(=O)O` (some centres undefined), for which the relative growth was inactive: 0.983.

With `CC(C)[C@H]1CNC(=O)C1`, the relative growth was inactive: 0.976.

Regarding `CN1CC2(CNC2)OCCS1(=O)=O`, the relative growth is inactive: 1.03.

Regarding `CCNC1(c2cccs2)CCCCC1=O.Cl` (centres undefined), the relative growth was inactive: 1.03.

As to `C[C@@H](N)Cc1ccco1`, the relative growth was inactive: 0.916.

For `Cc1ccc2c(CCN)c(C)n(C)c2c1`, the relative growth is inactive: 1.02.

Regarding `NCCc1cc(O)c(O)cc1O`, the relative growth is inactive: 1.01.

Consider `C[C@@H]1O[C@@H](OC(=O)Cc2ccccc2)[C@H](O)[C@H](O)[C@H]1O`, for which the relative growth was inactive: 0.981.

Regarding `NC[C@H](CC(=O)O)c1ccc(Cl)cc1`, the relative growth was inactive: 0.993.

Consider `COC(=O)C1=COC(C)C2CN3CCC4(C(=O)Nc5ccccc54)C3CC12` (centres undefined), for which the relative growth was inactive: 1.01.

With `CCC(=O)CCCCC[C@@H]1NC(=O)[C@H]2CCCCN2C(=O)[C@H]([C@@H](C)CC)NC(=O)[C@H](Cc2cn(OC)c3ccccc23)NC1=O`, the relative growth is inactive: 0.957.

Regarding `c1cnc2[nH]cc(CN3CCNCC3)c2c1`, the relative growth was inactive: 0.977.

Consider `COC(=O)C(c1ccccc1)C1CCCCN1.Cl` (centres undefined), for which the relative growth was inactive: 1.07.

As for `COc1ccc(CCN)cc1O`, the relative growth was inactive: 1.

As for `OC1(c2cccnc2)CCNCC1`, the relative growth is inactive: 0.977.

For the molecule `CC(C)(C)C(=O)C(Oc1ccc(Cl)cc1)n1cncn1` (centres undefined), the relative growth was inactive: 1.14.

For the molecule `COc1ccc2c(c1O)-c1c(OC)c(OC)cc3c1C(C2)N(C)CC3` (centres undefined), the relative growth was inactive: 1.09.

As for `Cl.NCCc1c[nH]c2ccc(O)cc12`, the relative growth is inactive: 0.88.

In the case of `COCC(=O)N[C@@H]1[C@@H]2CNC[C@@H]21`, the relative growth was inactive: 0.973.

Source of the values: the supplement of paper PMC9446081.
